In PubChem BioAssay AID1645887 (National Center for Advancing Translational Sciences (NCATS), 2021):
Where “and” joins values, the source holds several entries; their conditions need not be identical. Equal values may be shown once. Screen size: about 16,000 compounds; about 40 (0.2%) were called active. Roughly 1% stayed inconclusive and do not appear here. Calls follow the shape of the dose curve; as a rule, active = well fitted activation curve with a large enough effect; inconclusive = small, poorly fitted or top-dose-only effect, or another doubt; inactive = no such curve, though single readings can be large or run the other way. Some of the results follow.

What follows are compounds tested against Rap guanine nucleotide exchange factor 4 (Homo sapiens) (UniProt Q8WZA2) (assay: Validation qHTS for agonist of cAMP-regulated guanine nucleotide exchange factor 4 (EPAC2)). Conditions: EPAC2 Rap1B BODIPY-GDP exchange, fluorescence; activation: stronger effect = higher value.
Sequence of UniProt Q8WZA2 (Q8WZA2 whole entry, looked up): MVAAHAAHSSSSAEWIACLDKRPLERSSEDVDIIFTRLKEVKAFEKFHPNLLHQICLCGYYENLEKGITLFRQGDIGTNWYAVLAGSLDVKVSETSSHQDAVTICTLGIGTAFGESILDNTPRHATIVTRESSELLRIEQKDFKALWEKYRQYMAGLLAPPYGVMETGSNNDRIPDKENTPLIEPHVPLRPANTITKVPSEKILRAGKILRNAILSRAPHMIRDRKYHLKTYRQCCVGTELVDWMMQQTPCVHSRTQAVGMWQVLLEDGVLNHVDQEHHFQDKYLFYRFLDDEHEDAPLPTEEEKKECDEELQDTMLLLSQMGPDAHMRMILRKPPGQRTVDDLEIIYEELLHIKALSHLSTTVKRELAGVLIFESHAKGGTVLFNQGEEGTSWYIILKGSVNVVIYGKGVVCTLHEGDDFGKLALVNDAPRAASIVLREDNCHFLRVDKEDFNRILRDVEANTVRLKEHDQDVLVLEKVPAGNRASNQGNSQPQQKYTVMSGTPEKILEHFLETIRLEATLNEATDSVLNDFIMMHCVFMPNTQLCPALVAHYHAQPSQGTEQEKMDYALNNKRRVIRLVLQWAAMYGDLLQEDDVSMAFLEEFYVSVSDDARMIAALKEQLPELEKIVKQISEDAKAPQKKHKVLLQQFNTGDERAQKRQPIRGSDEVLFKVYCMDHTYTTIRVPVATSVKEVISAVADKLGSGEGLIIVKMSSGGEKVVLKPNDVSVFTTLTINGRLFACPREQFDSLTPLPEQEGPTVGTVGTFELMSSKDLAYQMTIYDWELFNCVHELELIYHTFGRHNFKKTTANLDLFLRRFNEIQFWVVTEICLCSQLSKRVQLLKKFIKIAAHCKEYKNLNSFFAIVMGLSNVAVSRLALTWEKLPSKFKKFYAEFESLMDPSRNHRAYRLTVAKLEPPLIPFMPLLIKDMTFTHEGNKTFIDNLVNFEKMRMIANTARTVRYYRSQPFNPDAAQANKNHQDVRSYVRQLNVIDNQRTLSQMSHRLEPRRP
Summary of the method: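 Fluorescent exchange assay: 100 nM EPAC2 with 250 nM RAP1B-BODIPY-GDP and 50 uM GDP; compound added, 5 min at room temperature, then read (ex 480/em 540 nm) every 5 min for 30 min. Normalized to 6.5 mM cAMP agonist control.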
% is scaled to controls: 0 for no effect and ±100 for the full control effect.
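Also: exchange makes BODIPY-GDP fluorescence drop when released from Rap1B; series mostly up to about 150 µM.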

activation, inactive:
COc1ccc(C(=O)N2CCC3(CCCN(c4ccccc4)C3)CC2)cc1 -0.913%
COC(=O)C1CCN(Cc2ccc3c(c2)CN(C(=O)c2ccc(-n4cnnn4)cc2)CCO3)CC1 -3.06%
COC(=O)CC(NC1CCN(c2nc(C)c3cc4c(cc3n2)CCC4)CC1)C(=O)OC (configuration not stated) -9.13%
CCCCCCCCCCCCCCCCCC(=O)[O][Al] -8.35%
COc1ccc(CN2CCOc3c(cc(-c4ncc(C(F)(F)F)cc4Cl)cc3OCC3CCCO3)C2)c(O)c1 (configuration not stated) 2.84%
CC(=O)O[C@@H]1CC2CCC1(C)C2(C)C (some centres not stated) 2.84%
O=C(O)C[C@H]1c2ccccc2S(=O)(=O)N1C1CCCC1 -12.7%
Cc1cccc(-c2cc(=O)c3cc(C)ccc3o2)c1 -4.89%
CN(C)C(=S)SC(=S)N(C)C -10.9%
COC(=O)[C@H](Cc1ccccc1)NS(=O)(=O)N[C@@H](Cc1ccccc1)C(=O)OC -11.6%
COC(=O)[C@@H]1CCCN1C(=O)c1cnn(-c2nccc(-c3cc(C)sc3C)n2)c1C1CC1 -0.534%
C[n+]1cc2c3c(ccc2c2ccc4cc5c(cc4c21)OCO5)OCO3 -9.33% and 1.21% and -29.8%
Cn1c(=O)c(-c2ccc(F)c(F)c2)nc2cncnc21 6.78%
CCc1cc(C(=O)NCc2c(C)ncc3c2CCN(C(=O)C2=CCCC2)C3)no1 -4.52%
CN(C)c1ccc(-c2cc(Nc3ccc(F)cc3)ncn2)cc1 -10.5%
COc1ccc2c(c1)OCC(Cc1ccc(O)c(OC)c1)C2=O (configuration not stated) -21.4%
CCCCCCCCN1[C@@H](CC(C)=O)c2cc(C(F)(F)F)ccc2S1(=O)=O -28.7%
O=c1c(-c2cc(F)cc(F)c2)nc2cnc(Oc3ccccc3)nc2n1C1CC1 -5.19%
CO[C@H]1C[C@@H]2CC[C@@H](C)[C@@](O)(O2)C(=O)C(=O)N2CCCC[C@H]2C(=O)O[C@H]([C@H](C)C[C@@H]2CC[C@@H](OCCO)[C@H](OC)C2)CC(=O)[C@H](C)/C=C(\C)[C@@H](O)[C@@H](OC)C(=O)[C@H](C)C[C@H](C)/C=C/C=C/C=C/1C -23.7%
CN(C)CCN(Cc1ccccc1)c1ccccn1 -33.3%
O=C(c1cccc(F)c1)N1CCC2(CCCN(Cc3nccs3)C2)CC1 1.02%
COc1cc(=O)n2c(c1C(=O)N(C)Cc1nonc1C)CCN(C(=O)c1ccc(C)cc1C)CC2 -16.9%
CN(C)c1ccc(-c2cncnc2NCc2cccs2)cc1 -17.5%
CN(CC(=O)O)c1ccc(/C=C/c2ccnc3ccccc23)cc1 9.58%
COc1ccccc1N1CCN(CCN(C(=O)C2CCCCC2)c2ccccn2)CC1 -23.2%
COc1cc2c(cc1OC)-c1cc3cc(OC)c(OC)cc3c(=O)n1CC2 -28.1%
CC(=O)[C@H]1CC[C@H]2C3CC=C4C[C@@H](O)CC[C@]4(C)C3CC[C@]12C (some centres not stated) 1.48%
CC(=O)O[C@@]12CO[C@@H]1C[C@H](O)[C@@]1(C)C(=O)[C@H](O)C3=C(C)[C@@H](OC(=O)[C@H](O)[C@@H](NC(=O)OC(C)(C)C)c4ccccc4)C[C@@](O)([C@@H](OC(=O)c4ccccc4)[C@H]21)C3(C)C -19.7% and -35.2%
COc1ccc(-c2cn(CC3CCCCC3)nn2)cc1 -14.4%
COc1ccc(CNC(=O)C[C@H]2C(=O)N(Cc3ccccc3)C[C@@H]2Cc2ccccc2)cc1 -13.3%
COc1cccc(Nc2ncc3nc(-c4ccc(F)cc4)c(=O)n(C)c3n2)c1 -31.6%
CC(CN(C)C)CN1c2ccccc2Sc2ccc(C(F)(F)F)cc21 (configuration not stated) -10.7%
CCOC(=O)/C=C1\CN(Cc2ccc(OC)cc2)S(=O)(=O)c2ccc(C(F)(F)F)cc21 -22%
CN(C)Cc1ccccc1-c1nc(NC2CCNCC2)c2ccccc2n1 -5.63%
N[C@H](CO)Cc1cnc[nH]1 -3.13%
Cc1ccc(CN2[C@@H](c3ccccc3)COCCS2(=O)=O)cc1 -17.7%
COc1cc2c3cc1Oc1cc(ccc1O)CC1c4c(cc(OC)c(O)c4Oc4ccc(cc4)CC3N(C)CC2)CC[N+]1(C)C (configuration not stated) -12.4%
Cn1cc(-c2nc3cncnc3n(Cc3ccccc3Cl)c2=O)c2ccccc21 5.05%
CC1(C)SC2C(NC(=O)C(NC(=O)N3CCNC3=O)c3ccccc3)C(=O)N2C1C(=O)O (configuration not stated) 1.7%
c1ccc2c(c1)CCCN2 -8.29%
CCN(CC)CCOc1ccc(C(O)(Cc2ccc(Cl)cc2)c2ccc(C)cc2)cc1 (configuration not stated) -21.4%
COc1ccc(-c2coc3c(O)c(OC)ccc3c2=O)cc1 -5.62%
Cc1cnc(-n2ncc(C(=O)N(CCO)C(C)C)c2-c2cccs2)nc1-c1ccc(F)cc1 -8.21%
CCCCN(CCC#N)c1ccc(/C=C/c2ccnc3ccccc23)cc1 6.62%
COc1ccc(CNc2ccnc(-c3ccccc3Cl)n2)c(OC)c1 -15.3%
Nc1ncnc2c1ncn2[C@@H]1O[C@H](C(=O)NC2CC2)[C@@H](O)[C@H]1O -8.59%
COc1ccc(C(=O)N2CCC3(CCCN(C)C3)CC2)cc1 -5.53%
COc1ncc2nc(-c3cccs3)c(=O)n(-c3ccccc3)c2n1 3.75%
COc1cc(C2Oc3cc(C4Oc5cc(O)cc(O)c5C(=O)C4O)ccc3OC2CO)ccc1O (configuration not stated) 0.204%
CCCCCCCCCCCCCCCCCC(=O)NCC(COP(=O)([O-])OCC[N+](C)(C)C)OCC (configuration not stated) -33.6%
CC(C)CNC(=O)c1cn(C2CCN(Cc3nc4ccccc4s3)CC2)nn1 -4.68%
CCC(=O)O[C@@H]1CC(=O)O[C@H](C)C/C=C/C=C/[C@@H](O)[C@H](C)C[C@H](CC=O)[C@H](OC2O[C@H](C)[C@@H](O[C@H]3C[C@@](C)(O)[C@@H](OC(=O)CC)[C@H](C)O3)[C@H](N(C)C)[C@H]2O)[C@H]1OC (some centres not stated) -11%
